The whole screen tested about 310,000 compounds, of which about 2,200 (0.71%) showed an effect of 50% or more. Effects have a minus sign here. The list shows a part of the results.

This assay deals with human ether-à-go-go-related gene (hERG) potassium channel (human, UniProt Q12809). Nature of the assay: primary screen, population patch clamp on CHO cells stably expressing hERG.
Sequence of human ether-à-go-go-related gene (hERG) potassium channel (Q12809 whole entry, looked up): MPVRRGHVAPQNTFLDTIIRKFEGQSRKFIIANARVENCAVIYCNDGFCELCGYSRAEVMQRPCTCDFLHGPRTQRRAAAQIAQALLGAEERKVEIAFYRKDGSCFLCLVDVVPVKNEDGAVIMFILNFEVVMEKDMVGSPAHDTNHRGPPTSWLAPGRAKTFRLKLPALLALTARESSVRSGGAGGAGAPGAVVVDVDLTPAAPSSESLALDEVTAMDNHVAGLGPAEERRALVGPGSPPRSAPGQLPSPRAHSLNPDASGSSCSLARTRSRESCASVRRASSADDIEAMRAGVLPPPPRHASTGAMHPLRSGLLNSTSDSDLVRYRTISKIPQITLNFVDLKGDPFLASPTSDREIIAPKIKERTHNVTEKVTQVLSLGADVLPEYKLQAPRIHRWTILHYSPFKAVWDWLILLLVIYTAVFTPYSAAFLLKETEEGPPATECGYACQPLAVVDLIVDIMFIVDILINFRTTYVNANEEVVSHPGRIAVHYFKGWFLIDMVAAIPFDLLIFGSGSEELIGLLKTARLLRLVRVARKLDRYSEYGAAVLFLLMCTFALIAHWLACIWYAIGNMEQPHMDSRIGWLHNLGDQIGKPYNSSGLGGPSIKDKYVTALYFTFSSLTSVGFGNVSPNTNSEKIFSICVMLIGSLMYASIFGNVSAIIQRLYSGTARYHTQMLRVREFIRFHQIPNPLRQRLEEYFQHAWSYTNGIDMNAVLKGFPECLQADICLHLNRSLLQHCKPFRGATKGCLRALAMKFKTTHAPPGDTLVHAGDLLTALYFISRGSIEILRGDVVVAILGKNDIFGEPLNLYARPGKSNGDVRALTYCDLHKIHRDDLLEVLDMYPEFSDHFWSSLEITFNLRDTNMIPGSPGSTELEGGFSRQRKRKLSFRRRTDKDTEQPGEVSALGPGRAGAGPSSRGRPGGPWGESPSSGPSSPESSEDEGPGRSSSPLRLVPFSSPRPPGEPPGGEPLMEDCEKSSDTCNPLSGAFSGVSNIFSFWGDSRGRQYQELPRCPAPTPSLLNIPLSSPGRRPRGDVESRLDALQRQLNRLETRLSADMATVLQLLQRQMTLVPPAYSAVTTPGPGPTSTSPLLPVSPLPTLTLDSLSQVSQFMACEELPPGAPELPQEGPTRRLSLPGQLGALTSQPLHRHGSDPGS
Take `COc1cc(-c2nc3ccccn3c2NCC2CCCO2)ccc1O` (centres unmarked): the “hERG current change (%, negative = inhibition) at 1uM” value was determined as 2.7%.

As to `CN(C)c1ccc(-n2cccc2)cc1`, the “hERG current change (%, negative = inhibition) at 1uM” value was 9.3%.

Regarding `O=C(CC1C(=O)NCCN1Cc1ccccc1C(F)(F)F)NC1CCCC1` (centres unmarked), the “hERG current change (%, negative = inhibition) at 1uM” value came to 20.5%.

`CC(C)c1ccc(/C=C/C(=O)NCCCN2CCOCC2)cc1`: the “hERG current change (%, negative = inhibition) at 1uM” value came to 3.8%.

Take `CC(C)C(=O)N=C1SC2CS(=O)(=O)CC2N1Cc1ccc(Cl)cc1` (centres unmarked): the “hERG current change (%, negative = inhibition) at 1uM” value is 11.5%.

On to `O=C(CCc1ccc(S(=O)(=O)N2CCCCC2)cc1)c1nnc(-c2ccccc2)o1`, for which the “hERG current change (%, negative = inhibition) at 1uM” value was determined as 0.567%.

As to `CCOCCCNC(=O)c1c(C)[nH]c(C(=O)OCC)c1C`, the “hERG current change (%, negative = inhibition) at 1uM” value was -3.15%.

Turning to `O=c1[nH]c(SCc2nc3ccccc3n2Cc2ccccc2)nc2ccccc12`, the “hERG current change (%, negative = inhibition) at 1uM” value came out at 8.95%.

As to `COc1ccccc1NC(=O)CN1CCN(c2ccccc2F)CC1`, the “hERG current change (%, negative = inhibition) at 1uM” value is recorded as 6.58%.

`COCCN(CC(=O)NCC1CCCO1)C(=O)CCC(=O)Nc1cc(C)ccn1` (centres unmarked): the “hERG current change (%, negative = inhibition) at 1uM” value was determined as 7.71%.

For `Cc1c(OCC(=O)NC(Cc2c[nH]c3ccc(O)cc23)C(=O)O)ccc2c3c(c(=O)oc12)CCC3` (centres unmarked), the “hERG current change (%, negative = inhibition) at 1uM” value turned out to be 8.79%.

`COc1cccc(C=Nc2cccnc2)c1O`: the “hERG current change (%, negative = inhibition) at 1uM” value came to 3.4%.

Turning to `CC(C)CCc1noc(CN(C)CCC2CCOCC2)n1`, the “hERG current change (%, negative = inhibition) at 1uM” value came out at 11.5%.

In the case of `C=CCNC(=O)Nc1ccc(F)c(Cl)c1`, the “hERG current change (%, negative = inhibition) at 1uM” value was determined as 15.9%.

Consider `COCCCNC(=O)/C(C#N)=C/c1ccc(OCC(=O)O)c(OC)c1`, for which the “hERG current change (%, negative = inhibition) at 1uM” value was 14.1%.

On to `CN1C2CCC1/C(=C\c1ccc(F)cc1)C(=O)/C2=C/c1ccc(F)cc1`, for which the “hERG current change (%, negative = inhibition) at 1uM” value stood at 1.81%.

For the compound `COc1cc(NC(=O)COc2cc3oc(=O)cc(C)c3cc2Cl)cc(OC)c1OC`, the “hERG current change (%, negative = inhibition) at 1uM” value amounted to 18.6%.

Take `O=C(NCCS(=O)c1ccc(Cl)cc1)c1cccc(Cl)c1` (centres unmarked): the “hERG current change (%, negative = inhibition) at 1uM” value was 5.32%.

For the compound `N/C(=N\OC(=O)c1cccc(Br)c1)c1ccccn1`, the “hERG current change (%, negative = inhibition) at 1uM” value was 17%.

As to `CN(C(=O)c1cccc(C#N)c1)c1nnc(-c2ccccn2)s1`, the “hERG current change (%, negative = inhibition) at 1uM” value is 10.6%.

For `O=C(N/N=C/c1cccnc1)c1ccc(NC(=O)C(c2ccccc2)c2ccccc2)cc1`, the “hERG current change (%, negative = inhibition) at 1uM” value was -4.74%.

`O=C(CCNC(=O)c1ccccc1Cl)NCC1CCCO1` (centres unmarked): the “hERG current change (%, negative = inhibition) at 1uM” value is listed as -9.04%.

For `Cc1cc(F)ccc1S(=O)(=O)NCC(c1cccnc1)N1CCc2ccccc21` (centres unmarked), the “hERG current change (%, negative = inhibition) at 1uM” value is recorded as 16.7%.

For `O=C1CCC([N+](=O)[O-])C(c2cc3c(cc2Cl)OCO3)N1` (centres unmarked), the “hERG current change (%, negative = inhibition) at 1uM” value is 8.38%.

As to `COc1ccc(-c2nn(CCC#N)cc2C(=O)O)cc1`, the “hERG current change (%, negative = inhibition) at 1uM” value came to 15.4%.

Consider `CCNS(=O)(=O)c1ccc(CCC(=O)NCc2ccc(C)cc2)cc1`, for which the “hERG current change (%, negative = inhibition) at 1uM” value is listed as -0.294%.

As to `NC(=O)N/N=C/c1c(O)ccc2oc3c(c12)CCCC3`, the “hERG current change (%, negative = inhibition) at 1uM” value is on record as 9.96%.

With `N#C/C(=C\c1ccccc1)C(=O)N(c1ccccn1)C1CCCCC1`, the “hERG current change (%, negative = inhibition) at 1uM” value was 2.24%.

For the compound `CCOc1ccc(-n2nnnc2SCC(=O)NNC(=O)c2ccco2)cc1`, the “hERG current change (%, negative = inhibition) at 1uM” value worked out at 13.2%.

With `O=C1CSC(c2ccccc2F)N1c1cc(Cl)ccc1O` (centres unmarked), the “hERG current change (%, negative = inhibition) at 1uM” value turned out to be 2.62%.

`CCC(C)c1ccccc1NC(=O)COC(=O)C1=COCCO1` (centres unmarked): the “hERG current change (%, negative = inhibition) at 1uM” value worked out at 4.52%.

As for `S=c1[nH]nc(-c2ccccc2Cl)n1CC1CCCO1` (centres unmarked), the “hERG current change (%, negative = inhibition) at 1uM” value is -6.01%.

On to `C=C1CCN([C@H](C(=O)O)C(C)C)S(=O)(=O)c2ccccc21`, for which the “hERG current change (%, negative = inhibition) at 1uM” value is 9.92%.

In the case of `Cc1ccc(C)c(NC(=O)c2ccc(OC(=O)c3ccco3)cc2)c1`, the “hERG current change (%, negative = inhibition) at 1uM” value stood at 0.693%.

Regarding `CCC(C)NC(=O)C1CCCN(c2nc(C)cc(OC)n2)C1` (centres unmarked), the “hERG current change (%, negative = inhibition) at 1uM” value worked out at 15.8%.

As for `O=C(COC(=O)/C=C/c1ccc(C(F)(F)F)cc1)NCc1ccco1`, the “hERG current change (%, negative = inhibition) at 1uM” value came to 9.44%.

With `CCC(CC)NC(=O)c1cc(OC)c(OC)c(OC)c1`, the “hERG current change (%, negative = inhibition) at 1uM” value is 7.11%.

`Br.CCCCCCCCCCn1ccc(=N)cc1`: the “hERG current change (%, negative = inhibition) at 1uM” value is on record as -37.1%.

Take `C/C(=N\NC(=O)c1cccnc1)c1cc2ccccc2o1`: the “hERG current change (%, negative = inhibition) at 1uM” value was determined as 1.78%.

As for `COc1cccc(/C=C/C(=O)NNC(=O)c2ccncc2)c1`, the “hERG current change (%, negative = inhibition) at 1uM” value is -8.5%.

Regarding `CCOc1cc(C2CC(=O)NC3=C2C(=O)C(C(=O)OC)C(C)C3)cc(Br)c1O` (centres unmarked), the “hERG current change (%, negative = inhibition) at 1uM” value amounted to 7.34%.

Consider `O=C(Nc1ccc(O)cc1)c1ccc2c(c1)C(=O)N(Cc1ccco1)C2=O`, for which the “hERG current change (%, negative = inhibition) at 1uM” value is -9.52%.

In the case of `COCC(C)n1c(C)cc(C(=O)COC(=O)c2nc3nc(C)cc(C)n3n2)c1C` (centres unmarked), the “hERG current change (%, negative = inhibition) at 1uM” value was 11.6%.

`Cc1ccccc1NC(=O)c1ccccc1NC(=O)c1ccccc1F`: the “hERG current change (%, negative = inhibition) at 1uM” value stood at 12.7%.

Consider `N#CCCNS(=O)(=O)c1ccc(C(=O)OCCCOC(=O)c2ccc(S(=O)(=O)NCCC#N)cc2)cc1`, for which the “hERG current change (%, negative = inhibition) at 1uM” value was determined as 12.9%.

For the compound `COc1cccc(CNC(=O)C2=Cc3cccc(OC)c3OC2)c1`, the “hERG current change (%, negative = inhibition) at 1uM” value was 14.6%.

On to `Fc1ccc(-c2nnn3c2nc(NCc2ccccc2)c2ccccc23)cc1`, for which the “hERG current change (%, negative = inhibition) at 1uM” value was 14.1%.

Turning to `O=C(Oc1ccccc1C(=S)N1CCOCC1)c1ccc([N+](=O)[O-])cc1[N+](=O)[O-]`, the “hERG current change (%, negative = inhibition) at 1uM” value stood at 3.85%.

With `O=c1oc2ccc(NS(=O)(=O)c3cccc4cccnc34)cc2s1`, the “hERG current change (%, negative = inhibition) at 1uM” value was 17.2%.

Take `CCOC(=O)C1CCCCN1Cc1ccc(F)cc1` (centres unmarked): the “hERG current change (%, negative = inhibition) at 1uM” value is 12.3%.

On to `CCC(CC)C(=O)N1CCN(c2ccccc2)CC1`, for which the “hERG current change (%, negative = inhibition) at 1uM” value was found to be 5.52%.

With `O=C1Nc2ccccc2Oc2cc([N+](=O)[O-])ccc21`, the “hERG current change (%, negative = inhibition) at 1uM” value was determined as 13.2%.

Take `CCCCOc1cccc(C(=O)N(Cc2cccs2)C2CCS(=O)(=O)C2)c1` (centres unmarked): the “hERG current change (%, negative = inhibition) at 1uM” value stood at 4.37%.

As for `CC(C)(C)NC(=O)NC(=O)COC(=O)CCCc1c[nH]c2ccccc12`, the “hERG current change (%, negative = inhibition) at 1uM” value is listed as -6.79%.

On to `N#Cc1nc(-c2cccs2)oc1NCCN1CCOCC1`, for which the “hERG current change (%, negative = inhibition) at 1uM” value is 0.102%.

Regarding `Cc1nn(C)c(Cl)c1/C=N/OC(=O)c1ccc(F)cc1`, the “hERG current change (%, negative = inhibition) at 1uM” value is 5.15%.

As for `CC(=O)NCCc1cc2ccc(C)cc2[nH]c1=O`, the “hERG current change (%, negative = inhibition) at 1uM” value amounted to 7.29%.

Take `C=CCn1cnc2c(c1=O)c1nc3ccccc3nc1n2-c1ccc(C)cc1`: the “hERG current change (%, negative = inhibition) at 1uM” value was -2.35%.

For `O=C(COC(=O)CC1CCCCC1)Nc1c(Cl)cccc1Cl`, the “hERG current change (%, negative = inhibition) at 1uM” value is 10.5%.

The values are drawn from PMC4336329 (PLoS ONE, 2015).
